Data: PubChem BioAssay AID1240 (Sanford-Burnham Center for Chemical Genomics, 2008)
The whole screen tested about 50,000 compounds, of which about 800 (1.6%) showed an effect of 50% or more. Some of the results follow.

Target: Bcl-2-like protein 10 (Homo sapiens) (UniProt Q9HD36)
Assay: TR3 peptide-Bcl-B binding displacers, biochemical primary FP assay, phenotype converters (AID 1240);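 note: 0% = Bcl-B with tracer peptide and DMSO and 100% = tracer peptide lacking Bcl-B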
Settings: GST-Bcl-B / FITC-TR3 peptide fluorescence polarization; stronger effect = higher value; compound at 3.75 mg/L

UniProt Q9HD36, sequence (Q9HD36 whole entry, looked up): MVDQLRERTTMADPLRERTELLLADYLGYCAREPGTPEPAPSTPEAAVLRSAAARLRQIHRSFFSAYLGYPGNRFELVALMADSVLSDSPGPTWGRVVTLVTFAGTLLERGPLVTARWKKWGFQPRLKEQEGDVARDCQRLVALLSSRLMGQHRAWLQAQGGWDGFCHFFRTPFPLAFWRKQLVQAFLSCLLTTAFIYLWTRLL

| Structure (SMILES) | displacement [%] |
| --- | --- |
| COc1cccc(/C=C2\SC(=S)N(C)C2=O)c1O | 11 |
| CC1(C)CC(=O)c2sc(NC(=O)c3ccccc3)nc2C1 | -15 |
| COC(=O)c1cc(C(=O)N2CCN(c3ccccc3OC)CC2)cc([N+](=O)[O-])c1 | 0.7 |
| NC(=O)C1C(=O)Oc2ccccc2C1=O (centres undefined) | -6.7 |
| COc1ccc(C(=O)CSc2nnc(SCC(=O)c3ccc(OC)cc3)n2-c2ccccc2)cc1 | 10.4 |
| O=C(Nc1cccc(Br)c1)c1ccccc1 | 5.2 |
| CCCCOc1cccc(C(=O)Nc2ccc(N(CC)CC)cc2)c1 | 1.2 |
| CNC(=O)c1ccc(CN2CCN(Cc3ccccc3)CC2)cc1 | 0 |
| C/C(=N\N=C1/NC(=O)C(C)S1)c1ccc(Br)cc1 (centres undefined) | 5.2 |
| O=C(Nc1cccc2nsnc12)c1ccc(-c2cccc(Cl)c2)o1 | 3.4 |
| CCc1ccc(NC(=O)C(=O)NCCCOC(C)C)cc1 | 4.5 |
| CC(C)(C)c1cc(S(N)(=O)=O)c2cc(C(C)(C)C)cc(S(N)(=O)=O)c2c1 | 15.4 |
| Cc1cc(C)cc(NC(=O)COc2cccc(C)c2C)c1 | 1.9 |
| N=Cc1c(O)n(-c2c(Cl)cccc2Cl)c2ccc([N+](=O)[O-])cc12 | 12.3 |
| O=C1CC(N2CCN(c3ccccc3)CC2)C(=O)N1c1ccc(F)cc1 (centres undefined) | 1.4 |
| C#CCSc1nncn1C(=O)/C=C/c1ccco1 | -22.6 |
| O=C(Cc1ccccc1)Nc1cccc(NC(=O)c2ccc(Cl)cc2Cl)c1 | -14.6 |
| CC(C)c1ccc(/C=C/C(=O)Nc2sc3c(c2C(N)=O)CCCC3)cc1 | 3.2 |
| CCOc1ccc(/C=C2\C(=O)NC(=S)N(c3ccc(F)cc3)C2=O)cc1OC | -8 |
| COc1ccc2c(c1[N+](=O)[O-])CCC/C2=N/OC(=O)c1ccccc1SC | 12.7 |
| Cc1c(-n2c(CN3C(=O)c4ccccc4C3=O)nc3ccccc3c2=O)c(=O)n(-c2ccccc2)n1C | 3.2 |
| CCOc1ccccc1/C=N/NC(=O)c1ccccc1[N+](=O)[O-] | -6.5 |

| Structure (SMILES) | displacement [%] |
| --- | --- |
| CCOC(=O)C1C(=O)CC(C)(O)C(C(=O)OCC)C1c1ccc(OCC)cc1 (centres undefined) | 4.2 |
| CCc1ccc(NC(=O)CN(c2ccc(C)cc2)S(=O)(=O)c2ccccc2)cc1 | -7.7 |
| Fc1ccccc1CSc1nc2ncccc2[nH]1 | 12.5 |
| Nc1ccc2nc(SCc3ccc([N+](=O)[O-])cc3)sc2c1 | 4.6 |
| CCc1ccc(OCC(=O)Nc2cc(Cl)cc(Cl)c2)cc1 | 12.4 |
| Cc1ccc(NC(=O)c2ccccc2NC(=O)c2cccs2)cc1 | 4 |
| Cc1ccc(NC(NC=O)C(Cl)(Cl)Cl)c(C)c1 (centres undefined) | -16 |
| FC(F)(F)COc1nc(N2CCOCC2)nc(N2CCN(c3ccccc3)CC2)n1 | -6.5 |
| CCOC(=O)c1c(NC(=O)c2cc(-c3ccc(C(C)C)cc3)nc3ccccc23)sc(C(N)=O)c1C | -11 |
| CCOC(=O)COc1ccccc1/C=C1\C(=O)NN(c2ccccc2)C1=O | 3 |
| O=C(c1cccc(Br)c1)N1CCN(c2c(Cl)cccc2[N+](=O)[O-])CC1 | 10.3 |
| O=C1C=C(Nc2ccc(Cl)cc2)C(=O)N1c1cccc(C(F)(F)F)c1 | 10.3 |
| O=C(OCCc1ccc(SC(=O)c2ccccc2)s1)c1ccccc1 | 15.9 |
| Cc1ccc(/C=C2\C(=O)NN(c3ccc(Cl)c(Cl)c3)C2=O)s1 | 1 |
| COc1ccc(N(CC(=O)O)S(=O)(=O)c2ccccc2)cc1 | 8 |
| Cc1ccc(OCCNC(=O)CCc2ccccc2)cc1 | -2.1 |
| COc1ccccc1NC(=O)C1CCC(=O)N1 (centres undefined) | 12.7 |
| C(=C\c1nc2ccccc2nc1/C=C/c1ccccc1)/c1ccccc1 | 15.6 |
| O=C1c2ccccc2NC(c2ccccc2[N+](=O)[O-])N1O (centres undefined) | -4.5 |
| O=C(/C=C/c1ccco1)Nc1ccc2c(c1)OCCO2 | 0.8 |
| COc1ccc(Nc2ncnc3[nH]ncc23)cc1 | 2.5 |
| CCCn1c(C(O)c2cccc(OC)c2)nc2ccccc21 (centres undefined) | -5.1 |

| Structure (SMILES) | displacement [%] |
| --- | --- |
| COc1ccc(S(=O)(=O)N(CCc2ccccc2)CC(=O)NCc2ccc(Cl)cc2)cc1 | -2.8 |
| CCOc1ccc2nc(SC3CC(=O)N(c4ccccc4C)C3=O)sc2c1 (centres undefined) | 1.5 |
| O=C(CSc1nc2ccccc2c(=O)n1-c1ccccc1)Nc1ccc(F)cc1 | 11.3 |
| CCOC(=O)C1=C(O)/C(=C/c2ccc(O)c(OCC)c2)SC1=Nc1ccc([N+](=O)[O-])cc1 | -5.5 |
| O=C1NC(=Nc2cccc(O)c2)CS1 | -3.8 |
| C#CCSc1nc2ccccc2n1C(=O)CCN1C(=O)c2cccc3cccc(c23)C1=O | -8 |
| CC1(C)CC(=O)C=C(NNC(=O)CCc2ccccc2)C1 | -8 |
| O=C(CC1Sc2ccccc2NC1=O)Nc1ccc([N+](=O)[O-])cc1 (centres undefined) | -8.1 |
| COc1ccc(N2CC(C(=O)N/N=C/c3cc(OC)ccc3OC)CC2=O)cc1 (centres undefined) | -10.9 |
| CCCOc1ccc(C(=O)Nc2ccc(NC(=O)c3ccco3)c(OC)c2)cc1 | 0 |
| O=C(Cc1ccc(Br)cc1)Nc1ccc(F)c(F)c1 | -3.7 |
| CCOc1ccc(N2C(=O)/C(=C/c3ccc(OCc4ccc(C(=O)O)cc4)c(OC)c3)C(=O)NC2=S)cc1 | -4.8 |
| COc1ccc(Br)cc1Cn1c(=O)[nH]c2cc(C(F)(F)F)ccc21 | -5.6 |
| COC(=O)COc1ccc(/C=C2\C(=O)NC(=O)N(c3ccc(F)cc3)C2=O)cc1OC | -12.7 |
| Cc1cc(C)cc(CC2CC(=O)N(c3ccc(I)cc3)C2=O)c1 (centres undefined) | 10.6 |
| COc1ccc(C(C)N(C)CCC(c2ccccc2)c2ccccc2)cc1OC (centres undefined) | 5.7 |
| COc1cc(C(=O)Nc2nnc(CC(=O)NCc3ccccc3)s2)cc(OC)c1OC | -14 |
| O=C(/C=C/NNC(=O)c1cccnc1)c1ccc(Cl)cc1 | -8.2 |
| CN(Cc1ccccc1)C(=O)c1nn2c(C(F)(F)F)cc(-c3ccccc3)nc2c1Cl | 10.3 |
| CC12CCC(C(=O)N(NC(=O)c3ccc(O)cc3)C1=O)C2(C)C (centres undefined) | 6.3 |
| CCCCNC(=O)C(=O)NCCCOC(C)C | 5.1 |
| COc1ccc(C)cc1NC(=O)Cn1cnc2c1c(=O)n(C)c(=O)n2C | 6.8 |

| Structure (SMILES) | displacement [%] |
| --- | --- |
| O=C(O)CCC(=O)Nc1ccc(CC(=O)O)cc1 | 21.4 |
| C/C(=N/NC(=O)COc1cccc(Cl)c1)c1cccc([N+](=O)[O-])c1 | 0.8 |
| COc1ccc(OC)c(/C=C2\SC(=S)N(CCC(=O)O)C2=O)c1 | -9.2 |
| O=C(O)c1c(NS(=O)(=O)c2ccccc2)sc2c1CCCC2 | 9.9 |
| COC(=O)CN(c1cccc(Cl)c1)S(=O)(=O)c1ccc(C)cc1 | 3.9 |
| O=C(Cc1cccc2ccccc12)N/N=C/c1cccc(Br)c1 | 3.9 |
| C=CCN1C(=O)/C(=C\c2ccccc2)C(C(=O)OC)=C1C | -2.2 |
| N#Cc1ccc(NC(=S)Nc2ccccc2)cc1 | 15 |
| CC(=O)C(C1=NC(C)(C)Cc2cc(C)c(C)cc21)c1ccccc1 (centres undefined) | 14.9 |
| O=C1NC(=O)N(c2cccc(F)c2)C(=O)/C1=C/c1ccc(Oc2ccc([N+](=O)[O-])cn2)cc1 | 13.1 |
| COc1ccc(-c2cc(C(=O)NCc3ccccc3)c3ccccc3n2)cc1 | 10.6 |
| COc1cccc(C(=O)Nc2cccc3nsnc23)c1 | -2.4 |
| COc1ccc(C2Nc3ccccc3C(=O)N2Cc2ccco2)cc1COc1ccccn1 (centres undefined) | 2.5 |
| CCOc1cccc(=[O+]CC)c2c(C)oc(C)c12 | 154 |
| O=C(Nc1ccc(-c2nc3ccccc3o2)c(O)c1)c1ccc(-c2ccccc2)cc1 | 11 |
| CCOC(=O)/C(C#N)=N/Nc1ccc2c(c1)c1ccccc1n2CC | 2.8 |
| O=C(Cc1ccc(Cl)cc1)Nc1ccc(-c2nc3ccccc3[nH]2)cc1 | 1.9 |
| O=C1OC(c2ccccc2Cl)=N/C1=C\c1ccccc1C(F)(F)F | -11.5 |
| CCOC(=O)c1c(NC(=S)NC(=O)c2ccc([N+](=O)[O-])cc2)sc(C)c1C | -2.1 |
| O=S(=O)(c1ccc(Cl)cc1)N1C(=S)SCC1c1ccccc1 (centres undefined) | 4.2 |
| CN1CCN(C(=O)c2nn3c(C(F)(F)F)cc(-c4ccc(Cl)cc4)nc3c2Cl)CC1 | 8.5 |
| COc1ccc(C2=N/C(=C/c3ccccc3F)C(=O)N2c2ccccc2)cc1 | 125 |

| Structure (SMILES) | displacement [%] |
| --- | --- |
| CN1CCN(C(=O)CN2C(=O)/C(=C/c3ccccc3Cl)SC2=S)CC1 | 14.1 |
| O=C(c1ccncc1)N1CCN(C(c2ccccc2)c2ccccc2)CC1 | 5.9 |
| Cn1nnnc1SCC(=O)Nc1ccccc1 | 4.1 |
| COc1cc(NC(=O)C(=O)NCCN(C)C)c(OC)cc1Cl | -10.4 |
| Cc1ccc(N2C(=O)C3C4CCC(O4)C3C2=O)nc1 (centres undefined) | 17.4 |
| Nc1nonc1C(=O)N/N=C/c1cccc(OCC(=O)O)c1 | -7.7 |
| Cn1c(=O)c2c(nc(Oc3cccc(/C=N/NC(N)=S)c3)n2C)n(C)c1=O | -4.7 |
| Cc1ccc(-c2cc(C(F)(F)F)n3nc(C(=O)N4CCCc5ccccc54)cc3n2)cc1 | 16.4 |
| Cc1ccc(/C=C2\SC(=S)N(C(Cc3ccccc3)C(=O)O)C2=O)cc1 (centres undefined) | 11.8 |
| Cc1ccc(OCC(=O)Nc2ccc(C)cc2[N+](=O)[O-])cc1 | 10.3 |
| CC(=O)Nc1ccc(C(=O)NC2=NCCS2)cc1 | -10.7 |
| COc1ccc(O)c(/C=N/NC(=O)CSc2ccc3ccccc3n2)c1 | -7.5 |
| O=S1(=O)CCC(NC(=S)N/N=C/c2ccc(-c3ccc(Br)cc3)o2)C1 (centres undefined) | 4 |
| CC(=O)NC1=NC(=O)/C(=C\C=Cc2ccccc2)S1 | -42.4 |
| CC(=NC#N)C1=C(O)c2ccccc2C1=O | -5.3 |
| Cc1cccc(NC(=O)c2c(Cl)cccc2Cl)n1 | -1.7 |
| O=C(NC(=S)Nc1ccc2oc(-c3cccnc3)nc2c1)c1ccc(Cl)cc1 | -1.3 |
| O=C(NNS(=O)(=O)c1ccc(Br)cc1)[C@H]1C[C@H]1c1ccccc1 | -5.9 |
| O=C(Nc1ccccc1O)c1ccc2c(c1)C(=O)N(c1ccc(Cl)cc1)C2=O | 7.5 |
| COC(=O)NNC(=O)c1cc(OC)c(OC)c(OC)c1 | -8 |
| CC1(c2ccccc2)CC(C)(C)N(C(=O)CSC2=NCCS2)c2ccccc21 (centres undefined) | 6.6 |
